Laboratory results taken from PubChem BioAssay AID624296 (National Center for Advancing Translational Sciences (NCATS), 2012).
In all, about 350,000 compounds went through this assay and about 9,900 (2.8%) were called active. This list was built around the results that the source calls inconclusive (neither active nor inactive); the mix of calls is not that of the screen. Calls come from the whole dose curve; as a rule, active = well fitted activation curve with a large enough effect; inconclusive = small, poorly fitted or top-dose-only effect; inactive = no such curve, though single readings can be large or run the other way. No potency is given beside an inconclusive call; the fits are too rough.

experiment: A quantitative high throughput screen for small molecules that induce DNA re-replication in MCF 10a normal breast cells.; note: nearly all actives have a fitted effect of over 50% in size; conditions: MCF 10A DNA re-replication, Hoechst nuclear intensity, 48 h; series mostly up to 46.1 µM
Potency is the fitted concentration of half-maximal effect; tags give direction and shape of the fitted curve.

Row | SMILES | Potency
1 | CC1(C)CC(=O)C=C(Nc2ccccc2NC(=O)c2cnccn2)C1 | inconclusive [activator, single point]
2 | O=C(NNC(=O)c1ccc[nH]1)c1cccc(C(F)(F)F)c1 | inconclusive [activator, single point]
3 | COc1cc(NC(=O)c2ccccc2F)c(OC)cc1NC(=O)CN1CCOCC1 | inconclusive [activator, partial curve, poor fit]
4 | CCN(CC)CC(O)Cn1c(C)c(-c2ccccc2)c2cc([N+](=O)[O-])ccc21 (configuration not stated) | inconclusive [activator, single point]
5 | CN1/C(=C\C(=O)CSc2nnc(N)s2)C(C)(C)c2ccccc21 | inconclusive [activator, partial curve, poor fit]
6 | c1cc(SC2CCCCC2)cc(-c2nc3cnccn3c2NC2CCCCC2)c1 | active: 5.8 µM
7 | COc1ccc(-n2nc3c(N4CCC(C(=O)NCCc5ccco5)CC4)nnc(C)c3c2C)cc1 | inconclusive [activator, partial curve, poor fit]
8 | CCOC(=O)c1[nH]c(C)c(C(=O)Nc2ccc3c(c2)CCC3)c1C | inconclusive [activator, single point]
9 | COc1ccccc1NS(=O)(=O)c1cc(NC(=O)C2CCCO2)ccc1C (configuration not stated) | inactive
10 | COc1cccc(CNC(=O)C2CCN(S(=O)(=O)c3ccc(F)cc3)CC2)c1 | inactive
11 | CS(=O)(=O)N1CCN(c2ccc(C(=O)NC34CC5CC(CC(C5)C3)C4)cc2[N+](=O)[O-])CC1 | inactive
12 | Cc1ccc(C(=O)c2ccccc2C(=O)O)c(O)c1 | inconclusive [activator, partial curve]
13 | COc1ccc(NC(=O)c2cccc3ccccc23)cc1 | active: 20.6 µM
14 | O=C1CN(c2ccc(Cl)cc2)C2(CCCCC2)S1 | inconclusive [activator, partial curve, poor fit]
15 | Cc1cccc(NC(=O)CN2C(=O)S/C(=C\c3ccc(-c4cccc(C(=O)O)c4C)o3)C2=O)c1 | active: 23.1 µM
16 | O=C(CCSCCC(=O)NN=Cc1cccc(Cl)c1)NN=Cc1cccc(Cl)c1 | inconclusive [activator, single point]
17 | COc1ccc(NC(=O)CC2C(=O)N(C)C(=S)N2Cc2ccco2)cc1 (configuration not stated) | inactive
18 | Cc1ccc2oc(-c3ccccc3)c(C(=O)O)c(=O)c2c1 | inconclusive [activator, single point]
19 | COCc1ccc(CN2CCc3c([nH]c4ccccc34)C2CC(C)C)o1 (configuration not stated) | inconclusive [activator, partial curve, poor fit]
20 | CCOC(=O)c1cccc(C(=O)Nc2nc3ccc(OC)cc3s2)n1 | inactive
21 | CC(C)(C)OC(=O)NCCCC[C@@H](C(=O)NCCCCCCCCCCC(=O)N1CCN(C(=O)OC(C)(C)C)CC1)n1cc(CCO)nn1 | inconclusive [activator, full curve, poor fit]
22 | CCOC(=O)C(=CNNc1c(C)csc1C(=O)OC)C(=O)OCC | inactive
23 | CCn1c(CCNC(=O)c2cccs2)nnc1SCC(=O)Nc1ccc(Cl)cc1 | inactive

Row | SMILES | Potency
24 | CCCCCC[N+](C)(C)CC/C=C1/c2ccccc2Sc2ccc(Cl)cc21 | inconclusive [activator, single point]
25 | C/C(=N/NS(=O)(=O)c1ccc(C(C)(C)C)cc1)c1ccc2c(c1)OCO2 | inconclusive [activator, partial curve, poor fit]
26 | CSc1ccccc1NC(=S)N/N=C/c1cccn1Cc1ccc(F)cc1 | inconclusive [activator, partial curve, poor fit]
27 | CC[C@@H](C(=O)[C@@H](C)[C@@H](O)[C@H](C)CCc1ccc(C)c(O)c1C(=O)O)[C@H]1O[C@](CC)([C@H]2CC[C@](O)(CC)[C@H](C)O2)C[C@@H]1C | inconclusive [activator, single point]
28 | COc1cccc(C=NNC(=S)NN=Cc2cccc(OC)c2OC)c1OC | active: 18.4 µM
29 | CCOc1ccc(/C(O)=C2/C(=O)C(=O)N(c3ncccn3)C2c2ccc(C)cc2)cc1 (configuration not stated) | inconclusive [activator, full curve, poor fit]
30 | Cn1nc(C(=O)N2CCN(c3cccc(Cl)c3)CC2)c2c1-c1ccccc1S(=O)(=O)C2 | inactive
31 | CCN(CC)CCC(=O)N1c2ccccc2Sc2ccc(NC(=O)OC)cc21 | active: 23.1 µM
32 | O=C(CCCN1C(=O)/C(=C/c2ccc(F)cc2)SC1=S)NCCCn1ccnc1 | active: 20.6 µM
33 | Cc1ccc2nc(SCC(=O)c3ccc(O)cc3O)[nH]c2c1 | inconclusive [activator, partial curve, poor fit]
34 | Cc1ccccc1C(=O)N1CCN(c2ccc(NC(=O)c3ccc4c(c3)OCO4)cc2)CC1 | inconclusive [activator, single point]
35 | Cc1ccc(NC(=S)NCc2ccccc2)cc1[N+](=O)[O-] | inconclusive [activator, partial curve]
36 | O=C(Nc1cc(F)ccc1F)N1CCN(c2ccnc3cc(Cl)ccc23)CC1 | inactive
37 | CCC(C)[C@H](NC(=O)OC(C)(C)C)c1nnc(SCc2c(C)[nH]c(=O)[nH]c2=O)o1 (some centres not stated) | inconclusive [activator, full curve, poor fit]
38 | O=C(N/N=C/c1ccccn1)c1ccccc1 | inconclusive [activator, single point]
39 | Cc1sc(NC(=O)c2ccco2)c(C(c2cccnc2)N2CCN(C)CC2)c1C (configuration not stated) | inconclusive [activator, partial curve, poor fit]
40 | O=C(c1ccco1)N(Cc1nc2ccccc2c(=O)[nH]1)C1CCCC1 | inconclusive [activator, single point]
41 | Fc1ccc(-c2nnc3ccc(N4CCc5ccccc5C4)nn23)cc1 | inactive
42 | C=CCN(CC=C)C(=O)c1ccc(OC2CCN(Cc3ccccn3)CC2)cc1 | inconclusive [activator, full curve, poor fit]
43 | CCC(C(=O)NCC1CCCO1)N(C(=O)c1snc(C(N)=O)c1N)c1ccc(Cl)cc1 (configuration not stated) | inconclusive [activator, single point]
44 | CCOC(=O)C1CCN(c2nc(-c3ccc(Br)cc3)nc3ccccc23)CC1 | inconclusive [activator, single point]
45 | O=C(CSc1nnc(-c2ccccc2O)o1)N1CCc2ccccc2C1 | inconclusive [activator, single point]
46 | C=CCNC(=S)NN=C1CCC(c2ccccc2)CC1 (configuration not stated) | inactive

Row | SMILES | Potency
47 | CN(CC(=O)N1CCN(c2ccccc2)CC1)C1CCCc2ccccc21 (configuration not stated) | inconclusive [activator, single point]
48 | CCN(CCCCOC(=O)c1ccc(OC)c(OC)c1)[C@@H](C)Cc1ccc(OC)cc1 | inactive
49 | COc1ccc(-c2cc(C(=O)Nc3c(Cl)cc(Cl)cc3Cl)c3ccccc3n2)cc1OC | inconclusive [activator, partial curve]
50 | CC(=O)c1ccc(N2CCN(CN3C(=O)CC4(CCCC4)C3=O)CC2)c(F)c1 | inconclusive [activator, single point]
51 | CCc1nc(Nc2cccc(F)c2)c2oc3ccccc3c2n1 | inconclusive [activator, single point]
52 | Cc1ccc(S(=O)(=O)N2CCN(CC(=O)NC3CCCc4ccccc43)CC2)c(C)c1 (configuration not stated) | inactive
53 | O=c1c2ccccc2nc(-c2ccccc2)n1Cc1ccc(Cl)cc1 | active: 18.4 µM
54 | CCOc1ccc(C(=O)CC(NCc2cccs2)C(=O)O)cc1 (configuration not stated) | inconclusive [activator, single point]
55 | CC(C)CC(=O)NC(NC(=S)Nc1sc2c(c1C#N)CCCC2)C(Cl)(Cl)Cl (configuration not stated) | active: 16.4 µM
56 | CC(=O)N1CCC2(CC1)C/C(=N\NC(=S)Nc1ccc(C)cc1)c1cc(O)ccc1O2 | active: 23.1 µM
57 | Cc1cccc(CC(=O)N2CCN(C(=O)c3ccco3)CC2)c1 | inactive
58 | Cc1cc2oc(=O)cc(CN3CCN(Cc4ccccc4)CC3)c2cc1Cl | inactive
59 | Cc1c(NC(=O)COC(=O)c2ccc(Cl)nc2)c(=O)n(-c2ccccc2)n1C | inactive
60 | COc1ccc(OCC(O)Cn2c(Nc3ccccc3)nc3c2c(=O)n(C)c(=O)n3C)cc1 (configuration not stated) | inconclusive [activator, single point]
61 | c1cnc(N2CCN(c3nc4ccccc4n4cnnc34)CC2)nc1 | inactive
62 | Cc1ccc(C2CCN(C(=S)Nc3cccc(Cl)c3)C2)cc1 (configuration not stated) | inconclusive [activator, partial curve, poor fit]
63 | O=C(NCCc1ccccc1)C1CCN(S(=O)(=O)N2CCC3(CC2)OCCO3)CC1 | inactive
64 | COc1cccc(NC(=O)CN(C)S(=O)(=O)c2ccc3c(c2)NC(=O)CS3)c1 | inconclusive [activator, partial curve, poor fit]
65 | CC(C)CC(C(=O)O)N1C(=O)C2C3CC(C2C1=O)C1C(c2ccccc2)c2sc(=O)[nH]c2SC31 (configuration not stated) | inconclusive [activator, full curve, poor fit]
66 | CC(C)(C)c1ccc(C(O)CCCN2CCC(C(O)(c3ccccc3)c3ccccc3)CC2)cc1 (configuration not stated) | inconclusive [activator, single point]
67 | O=C(CC1CCCC1)Nc1ccc2c(c1)CCC2 | inconclusive [activator, partial curve, poor fit]
